# Assay results reported in the supplement of paper PMC3334620.
# Whole data set: some 33,000 sequences, median “E-score (-0.5 to 0.5)” near -0.041, cut for the highest 2% near 0.37. This is one part of the list.
# Biological target: T1, Ecm22 (UniProt Q05958)
# T1 sequence: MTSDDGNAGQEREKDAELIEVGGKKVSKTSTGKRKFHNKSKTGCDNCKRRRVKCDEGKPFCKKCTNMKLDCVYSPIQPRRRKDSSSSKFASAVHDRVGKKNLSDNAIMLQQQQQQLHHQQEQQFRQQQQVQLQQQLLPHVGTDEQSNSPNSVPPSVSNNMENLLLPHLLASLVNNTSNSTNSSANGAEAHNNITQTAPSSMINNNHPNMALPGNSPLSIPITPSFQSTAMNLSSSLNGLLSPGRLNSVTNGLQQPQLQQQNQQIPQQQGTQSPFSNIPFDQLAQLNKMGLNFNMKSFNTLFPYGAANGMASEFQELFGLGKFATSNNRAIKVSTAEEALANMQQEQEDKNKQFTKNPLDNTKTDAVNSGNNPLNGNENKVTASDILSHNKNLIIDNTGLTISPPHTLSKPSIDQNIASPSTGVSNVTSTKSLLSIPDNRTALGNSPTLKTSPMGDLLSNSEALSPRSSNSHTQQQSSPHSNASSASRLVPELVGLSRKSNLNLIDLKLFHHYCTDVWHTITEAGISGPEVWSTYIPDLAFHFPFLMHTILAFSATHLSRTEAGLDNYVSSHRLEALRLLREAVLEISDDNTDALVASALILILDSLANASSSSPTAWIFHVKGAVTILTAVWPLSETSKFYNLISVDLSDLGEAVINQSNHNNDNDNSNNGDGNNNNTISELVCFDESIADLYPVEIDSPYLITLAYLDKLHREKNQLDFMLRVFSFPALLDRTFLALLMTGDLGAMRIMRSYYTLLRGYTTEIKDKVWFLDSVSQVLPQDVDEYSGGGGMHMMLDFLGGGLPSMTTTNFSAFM
# Test: PBM E-score (8-mer binding enrichment) (E-score (-0.5 to 0.5)); higher = stronger / more preferred TF binding; most listed sequences are background and not binding sites
# Conditions: protein concentration: 200 nM; construct: GST-full length
# Procedure, shortened: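 Using PURExpress in vitro transcription/translation, GST-tagged yeast transcription factors were made in full-length or DNA-binding-domain form. These were applied at about 100-200 nM to double-stranded universal all-10-mer Agilent arrays, and bound protein was detected with fluorescent anti-GST. Scans were normalised with masliner before the Universal PBM Analysis Suite assigned E-scores to ungapped eight-base words pooled with their reverse complements.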
row,Sequence,PBM E-score
1,CTTATCTA,-0.0604
2,ATGCGAAA,0.195
3,AGATGCCA,-0.145
4,GGCCCGCA,-0.172
5,CCTTCCAG,-0.242
6,AATGAAGA,0.0084
7,AATTACGA,0.361
8,CCTTGACG,-0.25
9,GGTCTCCA,-0.142
10,GAGTCTTA,-0.0549
11,ACTCGTCG,0.269
12,TATTTTCA,0.0905
13,AGCTACCT,-0.141
14,TCTGGGAA,0.00899
15,ATTGCGAG,0.197
16,AATCGACA,0.159
17,ATGTCATA,0.116
18,CACACCAA,-0.0416
19,GCCACCAA,-0.152
20,GTTCTAGA,0.0332
21,TCGTCGAA,0.0505
22,AGCTTTTG,-0.0723
23,CTGCTCCA,-0.285
24,AGTACAAC,0.0262
25,CACTAGGG,-0.339

row,Sequence,PBM E-score
1,GGACACAC,-0.0586
2,CGAGCGCG,0.246
3,ACTCAGGG,-0.1
4,CCTAGTTC,-0.0647
5,AAGTATAG,-0.046
6,CAATGCGG,-0.081
7,ATTATGAG,0.0384
8,ATCCACAG,-0.194
9,AACGAGGC,0.434
10,AAAGTTGT,0.116
11,AGTCTTCA,-0.301
12,AGTAGGGG,-0.212
13,GGCTGTGA,-0.188
14,GAGCAACC,0.0217
15,ATTGAATA,0.0783
16,ATTAGACG,-0.0592
17,CGAACGGC,0.284
18,GCATGACA,-0.218
19,ATAGACAT,-0.0449
20,CTTCGGCC,-0.151
21,GGAGACCC,-0.153
22,GATTGCCA,0.00775
23,AACCAAAT,0.075
24,CTGCGTTA,-0.0491
25,ATTTACTC,-0.0808

row,Sequence,PBM E-score
1,TAAACCAA,-0.144
2,AGCGTAAT,-0.104
3,CGGCTGCC,-0.0345
4,ACGGGCCG,0.239
5,AGGATGTG,-0.185
6,GATTTAGC,0.198
7,TCCAGTCA,-0.288
8,CGGTATCA,0.0726
9,CCAACGGG,-0.0935
10,GACGTCCC,-0.0236
11,AGAACATG,0.094
12,AGGTCGGA,-0.0331
13,TGCTTAAA,0.0143
14,GCCCTTCA,-0.222
15,CATGTATC,-0.035
16,CCTACAGG,-0.161
17,CCAGCCCG,-0.142
18,TCTTTCCA,-0.197
19,AAAGGTAA,0.0533
20,ATAACAAG,-0.0507
21,CGATGGAC,0.148
22,AATTCAAC,0.0992
23,CTCCGGAA,0.0231
24,ACTATCCG,0.231
25,GACTACGC,-0.119

row,Sequence,PBM E-score
1,ATATTTGG,-0.0645
2,CTCACTGA,-0.255
3,GGGCAGAC,-0.156
4,CACCGGCC,-0.118
5,GGCAGTGA,-0.214
6,AAAAGTTA,-0.0116
7,GCGTACGC,0.178
8,ACTTTCGA,0.0118
9,AATCGGCA,-0.0217
10,CAAAAGAG,-0.117
11,GGCCGAAA,-0.0178
12,CTCCTTGC,-0.0678
13,AACGAAGA,0.421
14,CCTATGGC,-0.246
15,AAACGGTC,0.293
16,AGAATGGG,-0.127
17,GCCGCGCA,-0.18
18,ACTCAGGA,-0.109
19,GCGGTAAC,0.0639
20,AAGATCGG,-0.0633
21,AAAACGTG,-0.0161
22,ATTACGGA,0.147
23,GGAAAAGA,-0.11
24,AGGATCTA,-0.147
25,GGCCGCAC,-0.221

row,Sequence,PBM E-score
1,TCGTAACA,0.425
2,GATGTAAA,0.0502
3,AATCCCGT,0.192
4,TATGATCA,0.177
5,GATCCGAA,0.246
6,AGAGGTAA,0.107
7,AGGGAAAC,0.00272
8,ATGGAACA,-0.322
9,CCCTTAGC,-0.246
10,CACTAAAA,0.0698
11,CGTTAAAC,0.392
12,AACGTAAA,0.283
13,ATAGGTCC,-0.0948
14,ATGATGTG,-0.256
15,CGTCAGAC,-0.0294
16,AGATTTTC,-0.0479
17,CACGGCAG,0.0104
18,AACGGCGC,0.219
19,GTCTTTTA,0.0597
20,CGTCCGAA,0.144
21,ACGCGTCT,-0.0361
22,GACGTCAA,0.0646
23,GCAAGTGC,-0.203
24,AGCCCCTG,-0.155
25,ATAGAAGG,-0.116

row,Sequence,PBM E-score
1,AACCCTAA,-0.101
2,AGTGCCCG,-0.103
3,CTGCGCTC,-0.0626
4,AAAGCCGT,0.00607
5,CTGAATGA,-0.02
6,ATCTTTTA,0.0457
7,GCACGGGC,-0.263
8,CGTGGACA,-0.0844
9,AACCGTTG,-0.0721
10,CGCATGCG,0.0792
11,ACGGTCGA,0.147
12,ACAGGGCC,-0.0883
13,CTAGGAAC,0.101
14,CTACAGCC,-0.292
15,AAAACTGC,-0.0403
16,ACTCTAGA,-0.026
17,ATCTTGGA,-0.0471
18,ACACTCAT,-0.235
19,ACGAAGTC,0.279
20,GCGGCCGC,0.0179
21,CATGCCCA,-0.21
22,ACGAAAGG,0.33
23,CCCTAATC,-0.0893
24,ATAAACGA,0.484
25,AGCGTGTG,-0.0603

row,Sequence,PBM E-score
1,CAACGACG,0.351
2,GCATGGAC,-0.211
3,CTGAATCA,-0.0966
4,CAGACCGG,-0.125
5,CGAGACAC,0.115
6,GTTGTTTA,-0.0563
7,AGGCCAAC,0.0189
8,ATATAAAA,0.00487
9,AGAGGCCG,-0.116
10,CCGGCACA,-0.157
11,ACGGTTTA,0.0698
12,ACTTATCT,-0.0915
13,ATTGATGC,0.00312
14,GCATAACA,-0.00291
15,CGATCGAG,0.171
16,CACGAGAA,0.143
17,GACCTAGC,-0.189
18,GCGGTTAA,-0.0219
19,CCATCGGA,-0.0249
20,CTCGTGAA,0.213
21,GCTTTTAC,0.193
22,GTGAACGA,0.426
23,AGGAGGAG,-0.133
24,CTTTGATA,0.0249
25,CGGTGTTC,0.0923

row,Sequence,PBM E-score
1,CTTGTCTC,-0.117
2,CAAGATTA,-0.0926
3,CTCTGTGC,-0.146
4,CAAAAGAA,-0.00277
5,CCATGCTC,-0.163
6,AAAGCCCC,-0.191
7,CAAAGCAG,-0.125
8,AGGGGCGC,-0.156
9,AAGGAGCC,-0.343
10,AAACTTTC,-0.162
11,ACTTATAT,0.188
12,ATCTTTAA,0.123
13,ACAGGCGT,-0.24
14,ATACATGG,-0.0898
15,CAATCCCA,-0.25
16,CGCTTGAA,0.172
17,ACGTGAGG,-0.098
18,ATTAATGA,-0.0944
19,ATCAGAGG,-0.259
20,AAACAATC,-0.0512
21,AATTTACG,0.303
22,ACCAGTCG,0.169
23,AAGTCGGC,-0.184
24,CAGAGAAA,-0.102
25,ATCGTGTC,0.169

row,Sequence,PBM E-score
1,GCTCACAC,-0.123
2,GGTACGAA,0.486
3,AGGCGAAT,-0.02
4,ATGCTGGG,-0.224
5,GAGATGCA,0.0795
6,CAAACTAC,-0.0223
7,AGCTGCCA,-0.171
8,GCTCCCAC,-0.22
9,CGTTCCGC,0.458
10,CGCAACAG,-0.15
11,CCCACTTA,-0.15
12,CCAGATCG,0.079
13,ACATAGAA,-0.102
14,ATTTTCAA,-0.0671
15,AAGACAAA,-0.00529
16,CAGCGGAC,0.0106
17,ATACCTCA,-0.105
18,ATTACAAC,-0.0304
19,CTTTGATC,-0.186
